# Patent publication EP0900211B1 (PHARMACIA & UPJOHN COMPANY, priority 1996, dated 1997)
# Biological target: Stromelysin (Homo sapiens, UniProt P08254)
# Assay: MMP inhibition, particle concentration fluorescence assay
# Format: biochemical
# Details: in vitro; fluorescein/biotin substrate; MMP buffer pH 7.5; room temperature
# Sequence of Stromelysin (P08254 100-477): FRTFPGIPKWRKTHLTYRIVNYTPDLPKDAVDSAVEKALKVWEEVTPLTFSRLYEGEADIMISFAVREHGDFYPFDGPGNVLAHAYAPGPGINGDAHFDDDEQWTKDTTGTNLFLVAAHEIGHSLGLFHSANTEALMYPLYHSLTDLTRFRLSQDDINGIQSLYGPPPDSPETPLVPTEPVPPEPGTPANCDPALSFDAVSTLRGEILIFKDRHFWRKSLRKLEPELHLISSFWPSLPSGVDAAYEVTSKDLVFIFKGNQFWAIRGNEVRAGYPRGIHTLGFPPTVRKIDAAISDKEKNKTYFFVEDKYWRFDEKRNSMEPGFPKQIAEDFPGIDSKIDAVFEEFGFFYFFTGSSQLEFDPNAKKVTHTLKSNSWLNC
row,Ki [µM],Structure (SMILES)
1,3.3,"NC(=O)[C@H](Cc1ccccc1)NC(=O)Nc1nnc(S)s1 [Example 9, α-[[[(4,5-Dihydro-5-thioxo-1,3,4-thiadiazol-2-yl)amino]carbonyl]-amino]-(S)-benzenepropanamide]"
2,3.1,"O=C(Nc1nnc(S)s1)N[C@@H](Cc1ccccc1)C(=O)O [Example 12, N-[[(4,5-Dihydro-5-thioxo-1,3,4-thiadiazol-2-yl)amino]carbonyl]-L-phenylalanine]"
3,0.86,"O=C(Nc1nnc(S)s1)N[C@@H](Cc1ccccc1)C(=O)N1CCN(Cc2ccccc2)CC1 [Example 14, (S)-1-[2-[[[(4,5-Dihydro-5-thioxo-1,3,4-thiadiazol-2-yl)amino]-carbonyl]amino]-1-oxo-3-phenylpropyl]-4-(phenylmethyl)-piperazine]"
4,1.01,"COc1ccc(N2CCN(C(=O)[C@H](Cc3ccccc3)NC(=O)Nc3nnc(S)s3)CC2)cc1 [Example 21, (S)-1-[2-[[[(4,5-Dihydro-5-thioxo-1,3,4-thiadiazol-2-yl)amino]carbonyl]amino]-1-oxo-3-phenylpropyl]-4-(4-methoxyphenyl)piperazine]"
5,0.42,"O=C(Nc1nnc(S)s1)N[C@@H](Cc1ccccc1)C(=O)N1CCN(c2ncccn2)CC1 [Example 22, (S)-1-[2-[[[(4,5-Dihydro-5-thioxo-1,3,4-thiadiazol-2-yl)amino]-carbonyl]amino]-1-oxo-3-phenylpropyl]-4-(2-pyrimidinyl)-piperazine]"
6,0.01,"O=C(Nc1nnc(S)s1)N[C@@H](Cc1c(F)c(F)c(F)c(F)c1F)C(=O)N1CCN(c2ccccn2)CC1 [Example 23, (S)-1-[2-[[[(4,5-Dihydro-5-thioxo-1,3,4-thiadiazol-2-yl)amino]-carbonyl]amino]-1-oxo-3-(pentafluorophenyl)propyl]-4-(2-pyridinyl)piperazine]"
7,0.1,"CNC(=O)[C@H](Cc1ccc(F)cc1)NC(=O)Nc1nnc(S)s1 [Example 26, α-[[[(4,5-Dihydro-5-thioxo-1,3,4-thiadiazol-2-yl)amino]carbonyl]amino]-4-fluoro-N-methyl-(S)-benzenepropanamide]"
8,0.27,"O=C(Nc1nnc(S)s1)N[C@@H](Cc1ccc(F)cc1)C(=O)N1CCN(c2ccccn2)CC1 [Example 27, (S)-1-[2-[[[(4,5-Dihydro-5-thioxo-1,3,4-thiadiazol-2-yl)amino]-carbonyl]amino]-1-oxo-3-(4-fluorophenyl)propyl]-4-(2-pyridinyl)piperazine]"
9,0.92,"O=C(Nc1nnc(S)s1)N[C@@H](Cc1ccccc1)C(=O)N1CCOCC1 [Example 36, (S)-4-[2-[[[(4,5-Dihydro-5-thioxo-1,3,4-thiadiazol-2-yl)amino]carbonyl]amino]-1-oxo-3-phenylpropyl]morpholine]"
10,0.65,"O=C(Nc1nnc(S)s1)N[C@@H](Cc1ccccc1)C(=O)N1CCCC1 [Example 39, (S)-1-[2-[[[(4,5-Dihydro-5-thioxo-1,3,4-thiadiazol-2-yl)amino]carbonyl]amino]-1-oxo-3-phenylpropyl]pyrrolidine]"
11,0.38,"O=C(Nc1nnc(S)s1)N[C@@H](Cc1ccccc1)C(=O)N1CCSCC1 [Example 40, (S)-4-[2-[[[(4,5-Dihydro-5-thioxo-1,3,4-thiadiazol-2-yl)amino]carbonyl]amino]-1-oxo-3-phenylpropyl]-thiomorpholine]"
12,0.4,"CNC(=O)[C@H](Cc1ccc(O)cc1)NC(=O)Nc1nnc(S)s1 [Example 48, α-[[[(4,5-Dihydro-5-thioxo-1,3,4-thiadiazol-2-yl)amino]carbonyl]amino]-4-hydroxy-N-methyl-(S)-benzenepropanamide]"

# Second part, the compound before the results:
row,Structure (SMILES),Ki [µM]
1,"COC(=O)[C@H](Cc1ccccc1)NC(=O)Nc1nnc(S)s1 [Example 1, N-[[(4,5-Dihydro-5-thioxo-1,3,4-thiadiazol-2-yl)amino]carbonyl]-L-phenylalanine methyl ester]",0.9
2,"COC(=O)[C@@H](Cc1ccccc1)NC(=O)Nc1n[nH]c(=S)s1 [Example 3, N-[[(4,5-Dihydro-5-thioxo-1,3,4-thiadiazol-2-yl)amino]carbonyl]-D-phenylalanine methyl ester]",2.2
3,"O=C(Nc1nnc(S)s1)N[C@@H](Cc1ccccc1)C(=O)NCc1ccccc1 [Example 5, α-[[[(4,5-Dihydro-5-thioxo-1,3,4-thiadiazol-2-yl)amino]carbonyl]-amino]-N-(phenylmethyl)-(S)-benzenepropanamide]",0.52
4,"CN(C)C(=O)[C@H](Cc1ccccc1)NC(=O)Nc1nnc(S)s1 [Example 8, α-[[[(4,5-Dihydro-5-thioxo-1,3,4-thiadiazol-2-yl)amino]carbonyl]-amino]-N,N-dimethyl-(S)-benzenepropanamide]",0.25
5,"CC(C)NC(=O)[C@H](Cc1ccccc1)NC(=O)Nc1nnc(S)s1 [Example 10, α-[[[(4,5-Dihydro-5-thioxo-1,3,4-thiadiazol-2-yl)amino]-carbonyl]amino]-N-(1-methylethyl)-(S)-benzenepropanamide]",1.4
6,"COc1ccc(CNC(=O)[C@H](Cc2ccccc2)NC(=O)Nc2nnc(S)s2)cc1OC [Example 16, α-[[[(4,5-Dihydro-5-thioxo-1,3,4-thiadiazol-2-yl)amino]carbonyl]amino]-N-[(3,4-dimethoxyphenyl)methyl]-(S)-benzenepropanamide]",0.49
7,"CNC(=O)[C@H](Cc1ccc(OC)cc1)NC(=O)Nc1nnc(S)s1 [Example 31, α-[[[(4,5-Dihydro-5-thioxo-1,3,4-thiadiazol-2-yl)amino]-carbonyl]amino]-4-methoxy-N-methyl-(S)-benzenepropanamide]",0.46
8,"CNC(=O)[C@H](Cc1ccc([N+](=O)[O-])cc1)NC(=O)Nc1nnc(S)s1 [Example 33, α-[[[(4,5-Dihydro-5-thioxo-1,3,4-thiadiazol-2-yl)amino]carbonyl]amino]-N-methyl-4-nitro-(S)-benzenepropanamide]",0.33
9,"O=C(Nc1nnc(S)s1)N[C@@H](Cc1ccccc1)C(=O)NCC1CCCCC1 [Example 38, N-Cyclohexylmethyl-α-[[[(4,5-Dihydro-5-thioxo-1,3,4-thiadiazol-2-yl)amino]carbonyl]amino]-(S)-benzenepropanamide]",0.81
